Here are results for six molecules from patent US20150218244A1 (Hoffmann-La Roche, published 2015).

Assay [1] has as its target T1, IL-10 receptor (IL-10R) on freshly isolated primary blood monocytes (human, UniProt Q13651 22-578; Q08334 20-325).
T1 sequence (looked up) 1: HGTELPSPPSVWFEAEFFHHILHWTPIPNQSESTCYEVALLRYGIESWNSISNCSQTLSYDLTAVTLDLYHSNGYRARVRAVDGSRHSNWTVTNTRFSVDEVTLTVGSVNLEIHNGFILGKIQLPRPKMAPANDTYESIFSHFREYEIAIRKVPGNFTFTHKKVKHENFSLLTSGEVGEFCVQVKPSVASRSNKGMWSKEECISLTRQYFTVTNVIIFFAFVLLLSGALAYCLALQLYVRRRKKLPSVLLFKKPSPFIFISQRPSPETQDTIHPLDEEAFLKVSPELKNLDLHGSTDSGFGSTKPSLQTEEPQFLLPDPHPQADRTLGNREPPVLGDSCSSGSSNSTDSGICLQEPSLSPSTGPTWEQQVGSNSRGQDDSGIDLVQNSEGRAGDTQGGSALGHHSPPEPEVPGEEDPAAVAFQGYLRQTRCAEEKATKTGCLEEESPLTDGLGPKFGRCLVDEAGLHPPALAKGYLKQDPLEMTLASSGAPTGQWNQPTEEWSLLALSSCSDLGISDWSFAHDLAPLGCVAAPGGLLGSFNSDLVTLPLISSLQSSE
T1 sequence (looked up) 2: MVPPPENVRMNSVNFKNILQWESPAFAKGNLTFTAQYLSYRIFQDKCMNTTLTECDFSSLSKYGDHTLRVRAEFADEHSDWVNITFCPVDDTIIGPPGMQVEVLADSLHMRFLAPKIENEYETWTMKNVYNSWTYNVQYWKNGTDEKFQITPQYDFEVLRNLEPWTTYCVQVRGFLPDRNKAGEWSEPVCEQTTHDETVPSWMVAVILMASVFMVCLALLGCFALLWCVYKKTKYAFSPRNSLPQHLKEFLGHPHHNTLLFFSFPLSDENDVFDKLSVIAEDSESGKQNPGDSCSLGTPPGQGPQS
The experiment in a line: cell-based or functional assay.

For assay [2], the target named is T1, IL-10 receptor (IL-10R) on freshly …. The experiment in a line: cell-based or functional assay. This is another data set of the same source.
Assay [3] concerns the target T2, IL-10-his wild type cytokine (human, UniProt P22301 19-178).
T2 construct: also called IL-10 wt; IL-10 wild type cytokine
The experiment in a line: SPR (ProteOn XPR36, 25 C), about 770 RU biotinylated IL-10R1-Fc on NLC chip, his-tagged cytokine as analyte. The procedure:
The SPR assay set-up is depicted in FIG. 15. About 770 RU of the biotinylated human IL-10R1 fused to an IgG Fc region (see SEQ ID NO: 87) were captured on the neutravidin-derivatized chip matrix of an NLC chip along vertical channels at a concentration of 30 μg/ml and a flow rate of 30 μl/min for a contact time or 240 s. Binding to huIL10R1 was measured at 5 different analyte concentrations (50, 10, 2, 0.4, 0.08 nM) by injections in horizontal orientation at 50 μl/min, recording the association rate for 180 s, the dissociation rate for 600 s. Running buffer (PBST) was injected along the sixth channel to provide an “in-line” blank for referencing. Association rates (kₒₙ) and dissociation rates (koff) were calculated using a simple 1:1 Langmuir binding model (ProteOn Manager software version 2.1) by simultaneously fitting the association and dissociation sensorgrams. The equilibrium dissociation constant (KD) was calculated as the ratio koff/kₒₙ. As human IL-10R1 could not be regenerated without a loss of activity, the subsequent steps of ligand capture and analyte injection were performed channel per channel using a freshly immobilized sensorchip surface for every interaction.
A decreased affinity to the IL-10R1 may represent a distinct advantage when targeting IL-10 to inflamed tissues through fusion with an antibody.

T2 sequence (P22301 other isoform, or with tags, fused parts or gaps limits assumed): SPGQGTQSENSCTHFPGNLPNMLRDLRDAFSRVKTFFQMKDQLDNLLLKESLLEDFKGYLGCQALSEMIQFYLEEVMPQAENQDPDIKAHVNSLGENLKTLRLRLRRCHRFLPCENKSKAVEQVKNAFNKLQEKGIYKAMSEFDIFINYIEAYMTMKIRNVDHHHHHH

B1: 4G8 Fab-IL-10M1-Fab (other)
heavy: [sequence of about 100 residues omitted]GWLGNFDYWGQGTLVTVSSASTKGPSVFPLAPSSKSTSGGTAALGCLVKDYFPEPVTVSWNSGALTSGVHTFPAVLQSSGLYSLSSVVTVPSSSLGTQTYICNVNHKPSNTKVDKKVEPKSCDGGGGSGGGGSGGGGSSPGQGTQSENSCTHFPGNLPNMLRDLRDAFSRVKTFFQMKDQLDNLLLKESLLEDFKGYLGCQALSEMIQFYLEEVMPQAENQDPDIKAHVNSLGENLKTLRLRLRRCHRFLPCENGGGSGGKSKAVEQVKNAFNKLQEKGIYKAMSEFDIFINYIEAYMTMKIRNGGGGSGGGGSGGGGS[sequence of about 100 residues omitted][sequence of about 120 residues omitted]
light: EIVLTQSPGTLSLSPGERATLSCRASQSVSRSYLAWYQQKPGQAPRLLIIGASTRATGIPDRFSGSGSGTDFTLTISRLEPEDFAVYYCQQGQVIPPTFGQGTKVEIKRTVAAPSVFIFPPSDEQLKSGTASVVCLLNNFYPREAKVQWKVDNALQSGNSQESVTEQDSKDSTYSLSSTLTLSKADYEKHKVYACEVTHQGLSSPVTKSFNRGEC
notes: Tandem Fab fragments with an engineered monomeric IL-10 between them; also called Fab-IL-10M1-Fab (clone 4G8)
In the case of B1, in assay [1], the “EC50 [nM] pSTAT3 induction, Donor 1” value came to 8.2 nM; the “EC50 [nM] pSTAT3 induction, Donor 2” value was determined as 9.01 nM; the “EC50 [nM] pSTAT3 induction, Donor 3” value amounted to 6.81 nM.

B2: 4G8 Fab-IL-10 (other)
heavy: [sequence of about 100 residues omitted]GWLGNFDYWGQGTLVTVSSASTKGPSVFPLAPSSKSTSGGTAALGCLVKDYFPEPVTVSWNSGALTSGVHTFPAVLQSSGLYSLSSVVTVPSSSLGTQTYICNVNHKPSNTKVDKKVEPKSCDGGGGSGGGGSGGGGSSPGQGTQSENSCTHFPGNLPNMLRDLRDAFSRVKTFFQMKDQLDNLLLKESLLEDFKGYLGCQALSEMIQFYLEEVMPQAENQDPDIKAHVNSLGENLKTLRLRLRRCHRFLPCENKSKAVEQVKNAFNKLQEKGIYKAMSEFDIFINYIEAYMTMKIRN
light: EIVLTQSPGTLSLSPGERATLSCRASQSVSRSYLAWYQQKPGQAPRLLIIGASTRATGIPDRFSGSGSGTDFTLTISRLEPEDFAVYYCQQGQVIPPTFGQGTKVEIKRTVAAPSVFIFPPSDEQLKSGTASVVCLLNNFYPREAKVQWKVDNALQSGNSQESVTEQDSKDSTYSLSSTLTLSKADYEKHKVYACEVTHQGLSSPVTKSFNRGEC
As for B2, in assay [1], the “EC50 [nM] pSTAT3 induction, Donor 1” value was determined as 0.154 nM; the “EC50 [nM] pSTAT3 induction, Donor 2” value was found to be 0.194 nM; the “EC50 [nM] pSTAT3 induction, Donor 3” value came to 0.087 nM.

B3: 4G8 Fab-scIL-10-Fab (other)
heavy: [sequence of about 100 residues omitted]GWLGNFDYWGQGTLVTVSSASTKGPSVFPLAPSSKSTSGGTAALGCLVKDYFPEPVTVSWNSGALTSGVHTFPAVLQSSGLYSLSSVVTVPSSSLGTQTYICNVNHKPSNTKVDKKVEPKSCDGGGGSGGGGSGGGGSSPGQGTQSENSCTHFPGNLPNMLRDLRDAFSRVKTFFQMKDQLDNLLLKESLLEDFKGYLGCQALSEMIQFYLEEVMPQAENQDPDIKAHVNSLGENLKTLRLRLRRCHRFLPCENKSKAVEQVKNAFNKLQEKGIYKAMSEFDIFINYIEAYMTMKIRNGGGGSGGGGSGGGGSGGGGSSPGQGTQSENSCTHFPGNLPNMLRDLRDAFSRVKTFFQMKDQLDNLLLKESLLEDFKGYLGCQALSEMIQFYLEEVMPQAENQDPDIKAHVNSLGENLKTLRLRLRRCHRFLPCENKSKAVEQVKNAFNKLQEKGIYKAMSEFDIFINYIEAYMTMKIRNGGGGSGGGGSGGGGS[sequence of about 100 residues omitted][sequence of about 120 residues omitted]
light: EIVLTQSPGTLSLSPGERATLSCRASQSVSRSYLAWYQQKPGQAPRLLIIGASTRATGIPDRFSGSGSGTDFTLTISRLEPEDFAVYYCQQGQVIPPTFGQGTKVEIKRTVAAPSVFIFPPSDEQLKSGTASVVCLLNNFYPREAKVQWKVDNALQSGNSQESVTEQDSKDSTYSLSSTLTLSKADYEKHKVYACEVTHQGLSSPVTKSFNRGEC
Take B3: in assay [1], the “EC50 [nM] pSTAT3 induction, Donor 1” value was 0.557 nM; the “EC50 [nM] pSTAT3 induction, Donor 2” value amounted to 0.43 nM; the “EC50 [nM] pSTAT3 induction, Donor 3” value worked out at 0.116 nM.

B4: 4B9 IgG-IL-10 (other)
heavy: EVQLLESGGGLVQPGGSLRLSCAASGFTFSSYAMSWVRQAPGKGLEWVSAIIGSGASTYYADSVKGRFTISRDNSKNTLYLQMNSLRAEDTAVYYCAKGWFGGFNYWGQGTLVTVSSASTKGPSVFPLAPSSKSTSGGTAALGCLVKDYFPEPVTVSWNSGALTSGVHTFPAVLQSSGLYSLSSVVTVPSSSLGTQTYICNVNHKPSNTKVDKKV[sequence of human IgG1 Fc with changes omitted]GGGGSGGGGSGGGGSGGGGSSPGQGTQSENSCTHFPGNLPNMLRDLRDAFSRVKTFFQMKDQLDNLLLKESLLEDFKGYLGCQALSEMIQFYLEEVMPQAENQDPDIKAHVNSLGENLKTLRLRLRRCHRFLPCENKSKAVEQVKNAFNKLQEKGIYKAMSEFDIFINYIEAYMTMKIRN
light: EIVLTQSPGTLSLSPGERATLSCRASQSVTSSYLAWYQQKPGQAPRLLINVGSRRATGIPDRFSGSGSGTDFTLTISRLEPEDFAVYYCQQGIMLPPTFGQGTKVEIKRTVAAPSVFIFPPSDEQLKSGTASVVCLLNNFYPREAKVQWKVDNALQSGNSQESVTEQDSKDSTYSLSSTLTLSKADYEKHKVYACEVTHQGLSSPVTKSFNRGEC
With B4, the “EC50 [nM] pSTAT3 induction” value in assay [2] stood at 0.13 nM.

B5: 4B9 IgG-(IL-10M1)2 (other)
heavy: EVQLLESGGGLVQPGGSLRLSCAASGFTFSSYAMSWVRQAPGKGLEWVSAIIGSGASTYYADSVKGRFTISRDNSKNTLYLQMNSLRAEDTAVYYCAKGWFGGFNYWGQGTLVTVSSASTKGPSVFPLAPSSKSTSGGTAALGCLVKDYFPEPVTVSWNSGALTSGVHTFPAVLQSSGLYSLSSVVTVPSSSLGTQTYICNVNHKPSNTKVDKKV[sequence of human IgG1 Fc with changes omitted]GGGGSGGGGSGGGGSSPGQGTQSENSCTHFPGNLPNMLRDLRDAFSRVKTFFQMKDQLDNLLLKESLLEDFKGYLGCQALSEMIQFYLEEVMPQAENQDPDIKAHVNSLGENLKTLRLRLRRCHRFLPCENGGGSGGKSKAVEQVKNAFNKLQEKGIYKAMSEFDIFINYIEAYMTMKIRN
light: EIVLTQSPGTLSLSPGERATLSCRASQSVTSSYLAWYQQKPGQAPRLLINVGSRRATGIPDRFSGSGSGTDFTLTISRLEPEDFAVYYCQQGIMLPPTFGQGTKVEIKRTVAAPSVFIFPPSDEQLKSGTASVVCLLNNFYPREAKVQWKVDNALQSGNSQESVTEQDSKDSTYSLSSTLTLSKADYEKHKVYACEVTHQGLSSPVTKSFNRGEC
On to B5, for which the “EC50 [nM] pSTAT3 induction” value in assay [2] turned out to be 0.435 nM.

B6: human IL-10R1 fused to an IgG Fc region, biotinylated (Fc fusion)
chain: HGTELPSPPSVWFEAEFFHHILHWTPIPNQSESTCYEVALLRYGIESWNSISNCSQTLSYDLTAVTLDLYHSNGYRARVRAVDGSRHSNWTVTNTRFSVDEVTLTVGSVNLEIHNGFILGKIQLPRPKMAPANDTYESIFSHFREYEIAIRKVPGNFTFTHKKVKHENFSLLTSGEVGEFCVQVKPSVASRSNKGMWSKEECISLTRQYFTVTNVDEQLYFQGGS[sequence of human IgG1 Fc with C220A (EU numbers) omitted]GSGGLNDIFEAQKIEWHE
modifications: biotinylated (site not stated)
notes: also called hu IL-10R1; IL-10R1-Fc
By Kd is commonly meant the concentration at which binding is half-saturated. Lower therefore signals tighter binding. As a reminder, the koff is the rate constant with which the complex falls apart. As a reminder, the kon is a measure of how fast the partners come together. Low readings indicate slow association, high ones fast association. As for B6, in assay [3], the Kd amounted to 0.0389 nM, the koff amounted to 0.000108 s⁻¹ and the kon came to 2.76e+06 M⁻¹ s⁻¹.
